The values below come from ChEMBL document CHEMBL4888484, “Replenishing the malaria drug discovery pipeline: Screening and hit evaluation of the MMV Hit Generation Library 1 (HGL1) against asexual blood stage Plasmodium falciparum ,using a nano luciferase reporter read-out” (2022).

The campaign covered roughly 150,000 compounds. About 540 (0.36%) showed an effect of 50% or more. Some of the results follow.

The subject of this test is Plasmodium falciparum. Description: Primary screen in NF54 nanoGlo assay, in single point, at 2uM, 72h; a lower Z score goes with more inhibition. Type of test: functional, Erythrocyte. As to conditions: timepoint 72 hour.
In general, % Inhibition refers to the drop in the measured response relative to a control, in per cent. Take `CCc1cccc(CC)c1NC(=O)c1ccc(N2C(=O)C3C4CC(c5ccccc5)C(C4)C3C2=O)cc1` (centres undefined): the “% Inhibition” value is given as 28% and the Z score was -3.13.

As to `CCc1ccc(C2CC(C(=O)NCc3cccnc3)CN(C(=O)c3ccoc3)C2)cc1` (centres undefined), the “% Inhibition” value is listed as -7% and the Z score was 1.

As for `COc1ccc(-c2ccc(N3CCN(C(=O)CN(CCN4CCOCC4)C(=O)NC(C)C)CC3)nn2)cc1OC`, the “% Inhibition” value is listed as -8% and the Z score came out at 0.92.

Turning to `O=S(=O)(Nc1ccc2[nH]nnc2c1)c1cc(F)ccc1Cl`, the “% Inhibition” value was 3% and the Z score was -0.36.

Turning to `COc1cc(-c2n[nH]cc2CN(CCN(C)C)C2CCCC2)cc(OC)c1OC`, the “% Inhibition” value is on record as -4% and the Z score came out at 0.6.

Take `CCc1n[nH]c(C(=O)Nc2nc(CC3CC3)ns2)c1Br`: the “% Inhibition” value is recorded as 1% and the Z score was -0.13.

Consider `Cc1cnc([C@H](C)NC(=O)N2CC(O)(c3cccc(Br)c3)C2)s1`, for which the “% Inhibition” value was -8% and the Z score stood at 0.84.

On to `CCc1ccccc1NC(=O)Cn1c(=O)n(C(C)C)c(=O)c2sc(N3CCCCC3)nc21`, for which the “% Inhibition” value was -50% and the Z score was 4.41.

With `Cn1cccc(NC(=O)NC2CCC(C)(C)CC2)c1=O`, the “% Inhibition” value was -4% and the Z score was 0.78.

As for `O=C(NC[C@H](O)c1ccoc1)C(=O)NCC(F)(F)F`, the “% Inhibition” value is recorded as 4% and the Z score was -0.57.

As for `COc1cc(NC(=O)N2CCC[C@H]2c2cc(C)on2)cc(OC)c1OC`, the “% Inhibition” value stood at 9% and the Z score was -1.7.

As for `N#Cc1cccc(-c2nccn2C2CCCC2)c1`, the “% Inhibition” value is reported as 12% and the Z score is recorded as -1.71.

Turning to `CC(C)NC(=O)C1CCCC(NC(=O)CC=Cc2cccc(F)c2)C1` (centres undefined), the “% Inhibition” value is -5% and the Z score was found to be 0.54.

For `OCC1(c2ccccc2)CN(Cc2cccc(F)c2)C1`, the “% Inhibition” value is reported as -9% and the Z score amounted to 1.15.

Turning to `COc1ccc(N2C(=O)CN(CCc3ccc(Cl)cc3)[C@H]3CS(=O)(=O)C[C@H]32)cc1`, the “% Inhibition” value is -1% and the Z score is given as 0.16.

On to `NC(=O)c1cc(Cl)cc(Br)c1O`, for which the “% Inhibition” value was -18% and the Z score is on record as 2.77.

Take `Cc1cc(C(F)(F)F)nc2nn3c(-c4cnn(C)c4C)ccnc3c12`: the “% Inhibition” value is on record as -25% and the Z score came to 3.62.

As to `CNC(=O)c1cccc(N2CCC[C@H](NC(=O)C(C)C)C2)n1`, the “% Inhibition” value was -2% and the Z score came out at 0.22.

On to `CCC[C@H](C)c1cc(NC(=O)CNC(=O)C(C)(C)C)[nH]n1`, for which the “% Inhibition” value was found to be 0% and the Z score is on record as 0.09.

In the case of `CCn1nncc1CNC(=O)Nc1c(C)csc1Cl`, the “% Inhibition” value is -11% and the Z score came out at 2.4.

On to `O=C(CN1CCC(F)(F)[C@@H](CO)C1)N1CCC(Cc2ccccc2)CC1`, for which the “% Inhibition” value turned out to be 0% and the Z score is -0.02.

Turning to `CCn1nc(C)c(-c2nc([C@H](O)c3ccccc3)nn2CCO)c1C`, the “% Inhibition” value was 10% and the Z score is -1.84.

Take `Cc1c(C)c(C(=O)NCc2ccco2)n(Cc2cccc(F)c2)c1C`: the “% Inhibition” value is recorded as -3% and the Z score amounted to 0.39.

Regarding `CC(C)C(=O)N1C[C@H](O)C[C@H]1c1nnc2n1CCN(C(=O)c1cc(F)ccc1F)C2`, the “% Inhibition” value is recorded as -5% and the Z score is 0.54.

Turning to `CC(C)CN1CCCCC1C(=O)NC1CCCc2[nH]c(=O)ccc21` (centres undefined), the “% Inhibition” value is -12% and the Z score turned out to be 1.61.

As to `CN(C)C(=O)c1ccc(CNC(=O)CCCn2cccn2)o1`, the “% Inhibition” value was -5% and the Z score is 0.65.

Turning to `Cc1cccc(Nc2nc(-c3ccccc3)ncc2C(=O)N2CCC(C)CC2)c1`, the “% Inhibition” value came to 0% and the Z score is -0.04.

With `CCC(C)C(NC(=O)NCc1nnc(N(C)C)[nH]1)C(F)(F)F` (centres undefined), the “% Inhibition” value was 1% and the Z score is on record as -0.09.

Regarding `Cc1nnsc1C(=O)N1C[C@H]2CC[C@@H](C1)N(Cc1c(C)noc1C)C2=O`, the “% Inhibition” value stood at 1% and the Z score is on record as -0.2.

Take `O=C(c1ccccc1)c1n[nH]c(C(=O)c2ccc(Br)cc2)c1O`: the “% Inhibition” value is given as -7% and the Z score worked out at 0.81.

On to `O=C(Cc1ccc(Cl)cc1)Nc1c[nH]c(=O)[nH]c1=O`, for which the “% Inhibition” value is reported as -10% and the Z score turned out to be 1.69.

`O=C(CCC(=O)c1ccc2c(c1)OCCCO2)Nc1ccc(F)cc1`: the “% Inhibition” value is listed as -9% and the Z score is recorded as 0.91.

In the case of `CCc1cccc(C)c1N[C@@H](C)COC`, the “% Inhibition” value is recorded as -6% and the Z score is given as 0.84.

Consider `CCc1ccc(C(=O)N2CCCCCCC2)s1`, for which the “% Inhibition” value was -7% and the Z score turned out to be 1.07.

For the compound `CC(On1nnc2ccc(Cl)cc21)C(=O)N1c2ccccc2CC1C` (centres undefined), the “% Inhibition” value is -1% and the Z score was found to be 0.13.

For the compound `Cc1nc([C@H](C)NC(=O)Nc2cc(-c3nnco3)ccc2C)cs1`, the “% Inhibition” value is reported as -4% and the Z score is 0.47.

Consider `COc1ccc(F)c(F)c1C(=O)N[C@H]1CCN(CC(=O)N(C)C)C[C@@H]1O`, for which the “% Inhibition” value was -6% and the Z score is 1.13.

With `CCCO[C@H]1CCCN(c2nc(-c3cccnc3)nc3c2CNC3)C1`, the “% Inhibition” value is 2% and the Z score is given as -0.3.

Regarding `CC(=O)Oc1c(-c2ccc(NC(=O)c3ccccc3Cl)cc2)c(CC(C)C)nn1-c1ccc(F)cc1`, the “% Inhibition” value is listed as -4% and the Z score is 0.51.

`COc1ccc(-c2cnc(C(=O)N3CCCc4ccccc43)o2)cc1`: the “% Inhibition” value is listed as 8% and the Z score was -1.06.

As to `Clc1cccc(Cc2nc([C@@H]3COCCN3)no2)c1`, the “% Inhibition” value is on record as -9% and the Z score came out at 1.32.

For the compound `Cc1ccccc1N1CC[C@H](CNC(=O)Cn2ccccc2=O)C1`, the “% Inhibition” value is -1% and the Z score came out at 0.15.
